{
  "source": "PubChem BioAssay AID1345082",
  "about": "(National Center for Advancing Translational Sciences (NCATS), 2018)",
  "note": "Where “and” joins values, the source holds several entries; their conditions need not be identical. Equal values may be shown once. The whole screen tested about 94,000 compounds, of which about 4,000 (4.3%) were called active. The shares of active, inactive and inconclusive entries below differ from those in the screen. Calls follow the shape of the dose curve; as a rule, active = well fitted inhibition curve with a large enough effect; inconclusive = small, poorly fitted or top-dose-only effect; inactive = no such curve, though single readings can be large or run the other way. Potencies beside an inconclusive call are fits to weak or partial responses and may not hold up. % is scaled to controls: 0 for no effect and ±100 for the full control effect; potency is read from the fitted curve at half-maximal effect; tags tell the direction and shape of the fitted curve.",
  "data": [
    {"assay": "Cytotoxic Profiling in NIH 3T3 Cell Line of Diverse Libraries Using Quantitative High-Throughput Screening; also: nearly all actives have a fitted effect of over 55% in size", "conditions": "NIH 3T3 viability, CellTiter-Glo ATP luminescence, 48-72 h; activity change, negative = cytotoxicity: at 96.7 µM (top of the series); series mostly up to 96.7 µM", "how_it_was_run": "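First NIH 3T3 cells are plated at 400 cells/well; next compound is pinned in; then plates incubate 48 or 72 hr at 37 °C; finally CellTiter-Glo is added and luminescence read after 10 min.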", "values": [
      {"smiles": "CCOC(=O)C1=C(C)N=C2SC=C(CC(=O)Nc3ccc(OC)cc3)N2C1c1ccccc1F", "note": "(stereo not given)", "Potency": "inconclusive: 50.1 µM [inhibitor, partial curve, poor fit]"},
      {"smiles": "O=C(N[C@@H]1CN(C(=O)Nc2ccccc2)CCC[C@H]1O)c1ccc(O)cc1", "activity change, negative = cytotoxicity": "inactive: -21.5% [at 138 µM]"},
      {"smiles": "COc1ccc(C2=NOC3(CCCN(CC4CCCCC4)C3)C2)cc1", "note": "(stereo not given)", "Potency": "inconclusive: 50.1 µM [inhibitor, partial curve, poor fit]"},
      {"smiles": "O=C(C1CCCN1C(=O)c1ccccc1)N1CCC(N2Cc3cccn3C2=O)CC1", "note": "(stereo not given)", "activity change, negative = cytotoxicity": "inactive: 0.969%"},
      {"smiles": "Cc1cc(C)cc(-c2ccc(CN3CCCC3C(=O)N3CCCCC3)cc2)c1", "note": "(stereo not given)", "Potency": "inconclusive: 39.8 µM [inhibitor, partial curve, poor fit]"},
      {"smiles": "O=C(c1cccc(C(F)(F)F)c1)N1CCN(CCn2nc3n(c2=O)CCCC3)CC1", "activity change, negative = cytotoxicity": "inactive: -19.7%"},
      {"smiles": "CN1[C@@H](CCC(=O)N2CCOCC2)CNC(=O)[C@@H]2[C@H]1CCN2Cc1ccc(S(C)(=O)=O)cc1", "outcome": "inactive"},
      {"smiles": "O=C(NC1CC1)c1nc(-c2ccccc2)c2ccccn12", "Potency": "inconclusive: 79.4 µM [inhibitor, partial curve]"},
      {"smiles": "O=C(c1nc2ccccc2[nH]1)N1CCc2c(n(Cc3cccnc3)n(-c3ccccc3)c2=O)C1", "Potency": "inconclusive: 44.7 µM [inhibitor, partial curve, poor fit]"},
      {"smiles": "COc1ccc(OC)c(CN2CCC3OCCN(Cc4ccccc4F)C(=O)C3C2)c1", "note": "(stereo not given)", "Potency": "inconclusive: 112 µM [inhibitor, partial curve, poor fit]"},
      {"smiles": "COc1cccc(-c2ccc(C(=O)N3CCC(NC(=O)c4ccc(F)cc4)CC3)cc2)c1", "Potency": "inactive and inconclusive: 50.1 µM [inhibitor, partial curve, poor fit]"},
      {"smiles": "CN(CCc1ccncc1)C(=O)CCc1ccnc(N2CCOCC2)c1", "activity change, negative = cytotoxicity": "inactive: -0.4%"},
      {"smiles": "CCCCc1cc(C[C@H]2CNCC[C@H]2CC(=O)Nc2nccs2)no1", "Potency": "inconclusive: 15.8 µM [inhibitor, full curve, poor fit]"},
      {"smiles": "Fc1ccc2oc([C@H]3CCN(Cc4ccc(F)c(F)c4)C3)nc2c1", "activity change, negative = cytotoxicity": "inactive: -25.8% [at 138 µM]"},
      {"smiles": "CCC(=O)N1CCCC(c2nc(-c3ccc4nc[nH]c4c3)no2)C1", "note": "(stereo not given)", "activity change, negative = cytotoxicity": "inactive: -27%"},
      {"smiles": "CCC(NC(=O)c1cnc(-c2ccccc2)nc1-c1ccncc1)c1ccc(OC)cc1", "note": "(stereo not given)", "Potency": "inconclusive: 50.1 µM [inhibitor, partial curve, poor fit]"},
      {"smiles": "COc1ccccc1C(=O)NC1CCN(Cc2cccc(-c3ccc(F)c(F)c3)c2)CC1", "Potency": "inconclusive: 50.1 µM [inhibitor, partial curve, poor fit]"},
      {"smiles": "Cc1cc(-c2cc3c(cn2)CN(Cc2ccc(C(F)(F)F)cc2)CCN3)ccn1", "Potency": "active: 79.4 µM"},
      {"smiles": "Cn1cnc(S(=O)(=O)N2CCC3(CC2)CC(OCC2CC2)CCO3)c1", "note": "(stereo not given)", "Potency": "inconclusive: 70.8 µM [inhibitor, single point]"},
      {"smiles": "CCCN(CCC)C(=O)[C@@]12CCCC[C@H]1N(CCC(C)C)C(=O)CC2", "Potency": "inconclusive: 70.8 µM [inhibitor, partial curve, poor fit]"},
      {"smiles": "C=CCOc1c(OC)ccc2c1CN(C(C)C)C(=O)CCN2CC(O)COc1ccc(OC)cc1", "note": "(stereo not given)", "Potency": "inconclusive: 20 µM [inhibitor, full curve]"},
      {"smiles": "CC(C)Cn1c(=O)c(C(=O)NCc2cccs2)nc2cccnc21", "Potency": "inconclusive: 89.1 µM [inhibitor, partial curve]"},
      {"smiles": "O=C(c1cc(F)ccc1Cl)N1CCC2(CC1)N(c1ccccc1)C(=O)CS2(=O)=O", "activity change, negative = cytotoxicity": "inactive: 2.64%"},
      {"smiles": "COC(=O)C(=O)N1CC[C@H]2NC(=O)N(c3ccccc3)C(=O)[C@H]21", "activity change, negative = cytotoxicity": "inactive: -0.838% [at 174 µM]"},
      {"smiles": "O=C1CCN(C[C@@H](O)COCc2ccccc2)c2ccc(F)cc2CN1CC1CC1", "Potency": "inconclusive: 50.1 µM [inhibitor, partial curve, poor fit]"},
      {"smiles": "COc1ccc(C(=O)N2CCCC(c3noc(COc4ccccc4F)n3)C2)cc1OC", "note": "(stereo not given)", "Potency": "inconclusive: 56.2 µM [inhibitor, partial curve, poor fit]"},
      {"smiles": "CS(=O)(=O)c1ccc(CN2CCC[C@H]2c2nc(-c3ccnc(N4CCOCC4)c3)no2)cc1", "activity change, negative = cytotoxicity": "inactive: -1.4%"},
      {"smiles": "COCCOc1ccc2c(n1)CCN(C(=O)c1ccc(OC)cc1)C2", "activity change, negative = cytotoxicity": "inactive: -9.73%"},
      {"smiles": "O=C(c1ccccc1F)N1CCn2c(nnc2-c2ccc(Cl)cc2)C1", "Potency": "inconclusive: 31.6 µM [inhibitor, full curve, poor fit]"},
      {"smiles": "Cc1nccn1CCNC(=O)CCC[C@@H]1[C@H]2CCCN3CCC[C@@H](CN1C(=O)c1cccnc1)[C@@H]23", "outcome": "inactive"},
      {"smiles": "COc1c(C)cccc1C(=O)N1CCOC(c2ccc(Cl)c(Cl)c2)C1", "note": "(stereo not given)", "Potency": "inconclusive: 35.5 µM [inhibitor, partial curve, poor fit]"},
      {"smiles": "COc1cc(NC(=O)c2ccc(-c3ncn[nH]3)cc2)ccc1NC(=O)C(C)(C)C", "Potency": "inconclusive: 79.4 µM [inhibitor, single point]"},
      {"smiles": "O=Cc1cccc(N2CCN(C(=O)c3ccc4c(c3)OCO4)CC2=O)c1", "Potency": "inconclusive: 89.1 µM [inhibitor, single point]"},
      {"smiles": "COCCc1noc(-c2ccccc2OC2CN(C(=O)CC3CCCC3)C2)n1", "activity change, negative = cytotoxicity": "inactive: -19.2%"},
      {"smiles": "CC1=C[C@@H](CN2CCN(c3ncccn3)CC2)[C@H](C(C)C)C[C@H]1Cc1nnc(Cc2c[nH]c3ccccc23)o1", "Potency": "inconclusive: 50.1 µM [inhibitor, partial curve, poor fit]"},
      {"smiles": "Cc1cc(C)cc(-c2ccc(CN3CCCC3C(=O)NCc3cccnc3)cc2)c1", "note": "(stereo not given)", "Potency": "inconclusive: 50.1 µM [inhibitor, partial curve, poor fit]"},
      {"smiles": "COc1ccc(CNC[C@H]2Cn3cc(-c4ccccc4)nc3CO2)cc1", "Potency": "inconclusive: 100 µM [inhibitor, single point]"},
      {"smiles": "O=C(c1cccs1)N1CCC2(CCCN(CCC3CCCCC3)C2=O)C1", "note": "(stereo not given)", "Potency": "inconclusive: 35.5 µM [inhibitor, full curve]"},
      {"smiles": "O=C1c2cnc(-c3ccc(Cl)cc3)nc2OCCN1Cc1ccccc1", "Potency": "inconclusive: 31.6 µM [inhibitor, partial curve, poor fit]"},
      {"smiles": "COCc1cc(=O)n(CC(=O)Nc2cccc(Br)c2)c(N2CCOCC2)n1", "Potency": "inconclusive: 50.1 µM [inhibitor, partial curve, poor fit]"}
    ]}
  ]
}
